Assay results reported in the supplement of paper PMC4967469.
Lines with a small IC50 respond at low doses; a limit (>, <) means that the fit lies beyond the doses tested. AUC is the area under the same curve over the 256-fold range up to the top dose, as a fraction; values near 1 show little effect. Any top dose called inferred is not printed in the source and was worked back from the curve model.

Key:
Experiment in all cases: Viability of human cancer cell lines after 72 h of drug (GDSC screen)
[1] = compound: COc1cc(N2CCN(C)CC2)ccc1Nc1nc(N)c(C(=O)c2c(Cl)cccc2Cl)s1 [XMD14-99]; conditions: top dose 10.24 µM; top dose inferred
Description: (§1)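 Human cancer cell lines in 384-well plates, medium with 10% serum, drug for 72 h over a 256-fold dose range (nine 2-fold or five 4-fold steps up to the top dose). Adherent lines were fixed and stained with the nucleic acid dye Syto60, suspension lines read with resazurin; signal relative to control wells, capped at 0 and 100%. One two-parameter sigmoid per drug and line, fitted in a mixed model over all curves with the slope shared within a line.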

[2] = compound: Cc1cc([N+](=O)[O-])ccc1NS(=O)(=O)c1cc(Cl)ccc1Cl [FH535]; conditions: top dose 32 µM; top dose inferred
Description: as §1

[3] = compound: O=C(NC1CCNCC1)c1n[nH]cc1NC(=O)c1c(Cl)cccc1Cl [AT-7519]; conditions: top dose 10.24 µM; top dose inferred
Description: as §1

Row | Cell Line | AUC [1] | IC50 [1] [µM] | AUC [2] | IC50 [2] [µM] | AUC [3] | IC50 [3] [µM]
1 | SCC-25 (head and neck, adherent) | 0.973 | > 10.2 | 0.688 | 7.25 | 0.477 | 0.548
2 | SF295 (glioma, adherent) | 0.984 | > 10.2 | 0.516 | 2.22 | 0.882 | > 10.2
3 | SISO (cervix, adherent) | 0.987 | > 10.2 | 0.531 | 2.42 | 0.785 | 4.19
4 | SJRH30 (rhabdomyosarcoma, adherent) | 0.981 | > 10.2 | 0.525 | 2.35 | 0.55 | 0.883
5 | SK-CO-1 (large intestine, adherent) | 0.989 | > 10.2 | 0.787 | 13 | 0.92 | > 10.2
6 | SK-HEP-1 (liver, adherent) | 0.989 | > 10.2 | 0.565 | 2.98 | 0.988 | > 10.2
7 | SK-LU-1 (lung adenocarcinoma, adherent) | 0.962 | > 10.2 | 0.495 | 1.93 | 0.817 | 7.82
8 | SK-MEL-3 (melanoma, adherent) | 0.862 | > 10.2 | 0.648 | 5.49 | 0.891 | > 10.2
9 | SK-MEL-24 (melanoma, adherent) | 0.983 | > 10.2 | 0.651 | 5.78 | 0.81 | 6.82
10 | SK-MEL-28 (melanoma, adherent) | 0.988 | > 10.2 | 0.267 | 0.441 | 0.925 | > 10.2
11 | SK-MEL-30 (melanoma, adherent) | 0.935 | > 10.2 | 0.652 | 5.4 | 0.645 | 1.65
12 | SK-MES-1 (lung squamous cell carcinoma, adherent) | 0.954 | > 10.2 | 0.501 | 2.02 | 0.766 | 4.11
13 | SK-N-AS (neuroblastoma, adherent) | 0.98 | > 10.2 | 0.544 | 2.69 | 0.663 | 1.96
14 | SK-N-SH (neuroblastoma, adherent) | 0.971 | > 10.2 | 0.404 | 1.09 | 0.934 | > 10.2
15 | SK-OV-3 (ovary, adherent) | 0.979 | > 10.2 | 0.688 | 7.79 | 0.489 | 0.594
16 | SKG-IIIa (cervix, adherent) | 0.98 | > 10.2 | 0.801 | 22.3 | 0.982 | > 10.2
17 | SKN (uterus, adherent) | 0.897 | > 10.2 | 0.68 | 7.12 | 0.802 | 6.3

Row | Cell Line | AUC [1] | IC50 [1] [µM] | AUC [2] | IC50 [2] [µM] | AUC [3] | IC50 [3] [µM]
18 | SKN-3 (head and neck, adherent) | 0.983 | > 10.2 | 0.633 | 5.01 | 0.636 | 1.63
19 | SN12C (kidney, adherent) | 0.977 | > 10.2 | 0.616 | 4.33 | 0.964 | > 10.2
20 | SNG-M (endometrium, adherent) | 0.943 | > 10.2 | 0.505 | 2.06 | 0.587 | 1.1
21 | SNU-182 (liver, adherent) | 0.986 | > 10.2 | 0.735 | 9.72 | 0.449 | 0.462
22 | SNU-387 (liver, adherent) | 0.971 | > 10.2 | 0.702 | 8.07 | 0.597 | 1.22
23 | SNU-398 (liver, adherent) | 0.985 | > 10.2 | 0.448 | 1.43 | 0.525 | 0.748
24 | SNU-423 (liver, adherent) | 0.961 | > 10.2 | 0.709 | 8.71 | 0.463 | 0.498
25 | SNU-449 (liver, adherent) | 0.979 | > 10.2 | 0.641 | 5.1 | 0.919 | > 10.2
26 | SNU-475 (liver, adherent) | 0.983 | > 10.2 | 0.96 | > 32 | 0.725 | 2.55
27 | SU8686 (pancreas, adherent) | 0.979 | > 10.2 | 0.876 | > 32 | 0.748 | 3.65
28 | SU-DHL-5 (B-cell lymphoma, suspension) | 0.914 | 8.24 | 0.63 | 4.15 | 0.226 | 0.133
29 | SUIT-2 (pancreas, adherent) | 0.945 | > 10.2 | 0.565 | 3.03 | 0.867 | 9.99
30 | SW13 (adrenal gland, adherent) | 0.988 | > 10.2 | 0.5 | 2 | 0.973 | > 10.2
31 | SW48 (large intestine, adherent) | 0.979 | > 10.2 | 0.498 | 1.98 | 0.882 | > 10.2
32 | SW156 (kidney, adherent) | 0.97 | > 10.2 | 0.533 | 2.49 | 0.958 | > 10.2
33 | SW620 (large intestine, adherent) | 0.939 | > 10.2 | 0.614 |  | 0.495 | 0.623
